To fix the notation:
B1: TEV protease; numbered along this chain (parent)
chain: MGESLFKGPRDYNPISSSICHLTNESDGHTTSLYGIGFGPFIITNKHLFRRNNGTLVVQSLHGVFKVKDTTTLQQHLVDGRDMIIIRMPKDFPPFPQKLKFREPQREERICLVTTNFQTKSMSSMVSDTSCTFPSGDGIFWKHWIQTKDGQCGSPLVSTRDGFIVGIHSASNFTNTNNYFTSVPKNFMELLTNQEAQQWVSGWRLNADSVLWGGHKVFMVKPEEPFQPVKEATQL

The list shows a part of the results. Sequences were assembled here from the parent chain. Inactive controls read about 0.05.

This assay covers variants of B1. The experiment in a line: raw area under fraction-flipped curve 0-4 h after induction (AUC4h, not background-subtracted), DNA-recorder readout of cleavage of the substrate (dimensionless); higher = more cleavage of the substrate by the protease variant. As to conditions: temperature: 34 °C; time window: 0-4 h after rhamnose induction. The procedure: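 In vivo DNA recorder in E. coli TOP10(DE3) ΔrhaA at 34 °C. Each TEVp single-site mutant (parent TEVp 0) is paired with a single-site variant of the 7-mer TEVs (canonical ENLYFQ|S). The substrate sits between flexible linkers in a Bxb1-sfGFP-TEVs-SsrA fusion, so cleavage stabilises Bxb1 and speeds flipping of a recombination array, read by NGS. The value is the raw area under the fraction-flipped curve over 0-4 h after rhamnose induction (AUC4h), with ≥20 reads per time point. It is not background-subtracted; inactive controls average about 0.047.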

The record followed here is the supplement of paper PMC12217912.
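Note: Bxb1 expression induced with 0.2% (w/v) L-rhamnose at OD600 near 0.5, cultures sampled hourly, flipped fraction per protease–substrate barcode pair counted by paired-end Illumina sequencing.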

For the variant MGESLFKGPRDYNPISSSICHLTNESDGHTTSLYGIGFGPFIITNKHLFRRNNGTLVVQSLEGVFKVKDTTTLQQHLVDGRDMIIIRMPKDFPPFPQKLKFREPQREERICLVTTNFQTKSMSSMVSDTSCTFPSGDGIFWKHWIQTKDGQCGSPLVSTRDGFIVGIHSASNFTNTNNYFTSVPKNFMELLTNQEAQQWVSGWRLNADSVLWGGHKVFMVKPEEPFQPVKEATQL [H62E], the “area with substrate ENAYFQS” value came to 0.0567, the “area with substrate ENDYFQS” value is 0.0605, the “area with substrate ENEYFQS” value turned out to be 0.0532 and the “area with substrate ENFYFQS” value was 0.0797. Moreover, the “area with substrate ENKYFQS” value came out at 0.0516, the “area with substrate ENMYFQS” value was determined as 0.08, the “area with substrate ENNYFQS” value is 0.0646 and the “area with substrate ENPYFQS” value came to 0.0574. Besides, the “area with substrate ENQYFQS” value is 0.0722, the “area with substrate ENRYFQS” value is 0.066, the “area with substrate ENSYFQS” value amounted to 0.0733 and the “area with substrate ENTYFQS” value was 0.0652.

On to MGESLFKGPRDYNPISSSICHLTNESDGHTTSLYGIGFGPFIITNKHLFRRNNGTLVYQSLHGVFKVKDTTTLQQHLVDGRDMIIIRMPKDFPPFPQKLKFREPQREERICLVTTNFQTKSMSSMVSDTSCTFPSGDGIFWKHWIQTKDGQCGSPLVSTRDGFIVGIHSASNFTNTNNYFTSVPKNFMELLTNQEAQQWVSGWRLNADSVLWGGHKVFMVKPEEPFQPVKEATQL [V58Y], for which the “area with substrate ENAYFQS” value stood at 0.059, the “area with substrate ENCYFQS” value stood at 0.0575, the “area with substrate ENDYFQS” value was 0.0496 and the “area with substrate ENEYFQS” value turned out to be 0.0504. Also, the “area with substrate ENFYFQS” value was 0.0541, the “area with substrate ENGYFQS” value amounted to 0.0684, the “area with substrate ENIYFQS” value stood at 0.0687 and the “area with substrate ENKYFQS” value amounted to 0.053. Further, the “area with substrate ENMYFQS” value was 0.0581, the “area with substrate ENNYFQS” value came out at 0.0472, the “area with substrate ENPYFQS” value worked out at 0.0546 and the “area with substrate ENSYFQS” value turned out to be 0.0493. Moreover, the “area with substrate ENTYFQS” value came to 0.0586 and the “area with substrate ENWYFQS” value was determined as 0.0541.

Regarding MGESLFKGPRDYNPISSSICHLTNESDGHTTSLYGIGFGPFIITNKHLFRRNNGTLVWQSLHGVFKVKDTTTLQQHLVDGRDMIIIRMPKDFPPFPQKLKFREPQREERICLVTTNFQTKSMSSMVSDTSCTFPSGDGIFWKHWIQTKDGQCGSPLVSTRDGFIVGIHSASNFTNTNNYFTSVPKNFMELLTNQEAQQWVSGWRLNADSVLWGGHKVFMVKPEEPFQPVKEATQL [V58W], the “area with substrate ENAYFQS” value is 0.055, the “area with substrate ENNYFQS” value came to 0.0155, the “area with substrate ENVYFQS” value was 0.0498 and the “area with substrate ENYYFQS” value was 0.0363.

On to MGESLFKGPRDYNPISSSICHLTNESDGHTTSLYGIGFGPFIITNKHLFRRNNGTLVVQSYHGVFKVKDTTTLQQHLVDGRDMIIIRMPKDFPPFPQKLKFREPQREERICLVTTNFQTKSMSSMVSDTSCTFPSGDGIFWKHWIQTKDGQCGSPLVSTRDGFIVGIHSASNFTNTNNYFTSVPKNFMELLTNQEAQQWVSGWRLNADSVLWGGHKVFMVKPEEPFQPVKEATQL [L61Y], for which the “area with substrate ENAYFQS” value was determined as 0.0537, the “area with substrate ENCYFQS” value stood at 0.0666, the “area with substrate ENDYFQS” value was 0.0553 and the “area with substrate ENEYFQS” value was 0.0872. For the same variant, the “area with substrate ENFYFQS” value worked out at 0.0416, the “area with substrate ENHYFQS” value was found to be 0.0582, the “area with substrate ENIYFQS” value amounted to 0.0747 and the “area with substrate ENNYFQS” value was determined as 0.0781. Also, the “area with substrate ENPYFQS” value amounted to 0.07, the “area with substrate ENQYFQS” value turned out to be 0.0662, the “area with substrate ENRYFQS” value came to 0.0643 and the “area with substrate ENSYFQS” value stood at 0.0451. For the same variant, the “area with substrate ENTYFQS” value worked out at 0.0558, the “area with substrate ENVYFQS” value is 0.0819, the “area with substrate ENWYFQS” value was 0.0684 and the “area with substrate ENYYFQS” value is 0.0477.

With MGESLFKGPRDYNPISSSICHLTNESDGHTTSLYGIGFGPFIITNKHLFRRNNGTLVVQNLHGVFKVKDTTTLQQHLVDGRDMIIIRMPKDFPPFPQKLKFREPQREERICLVTTNFQTKSMSSMVSDTSCTFPSGDGIFWKHWIQTKDGQCGSPLVSTRDGFIVGIHSASNFTNTNNYFTSVPKNFMELLTNQEAQQWVSGWRLNADSVLWGGHKVFMVKPEEPFQPVKEATQL [S60N], the “area with substrate ENAYFQS” value stood at 0.0694, the “area with substrate ENCYFQS” value is 0.0518, the “area with substrate ENEYFQS” value turned out to be 0.0551 and the “area with substrate ENGYFQS” value was 0.0519. In addition, the “area with substrate ENHYFQS” value came out at 0.0588, the “area with substrate ENIYFQS” value turned out to be 0.089, the “area with substrate ENMYFQS” value came out at 0.0748 and the “area with substrate ENPYFQS” value was 0.0569. For the same variant, the “area with substrate ENRYFQS” value was found to be 0.0633, the “area with substrate ENSYFQS” value turned out to be 0.0494, the “area with substrate ENTYFQS” value stood at 0.064 and the “area with substrate ENVYFQS” value is 0.0796. Moreover, the “area with substrate ENYYFQS” value was found to be 0.057.

For the variant MGESLFKGPRDYNPISSSICHLTNESDGHTTSLYGIGFGPFIITNKHLFRRNNGTLVVCSLHGVFKVKDTTTLQQHLVDGRDMIIIRMPKDFPPFPQKLKFREPQREERICLVTTNFQTKSMSSMVSDTSCTFPSGDGIFWKHWIQTKDGQCGSPLVSTRDGFIVGIHSASNFTNTNNYFTSVPKNFMELLTNQEAQQWVSGWRLNADSVLWGGHKVFMVKPEEPFQPVKEATQL [Q59C], the “area with substrate ENAYFQS” value is 0.0545, the “area with substrate ENCYFQS” value was 0.0748, the “area with substrate ENDYFQS” value was 0.0478 and the “area with substrate ENEYFQS” value was 0.0625. For the same variant, the “area with substrate ENGYFQS” value was 0.0632, the “area with substrate ENIYFQS” value was 0.121, the “area with substrate ENNYFQS” value amounted to 0.0713 and the “area with substrate ENQYFQS” value was 0.0702. Also, the “area with substrate ENSYFQS” value stood at 0.0582, the “area with substrate ENTYFQS” value was 0.0671, the “area with substrate ENVYFQS” value was 0.075 and the “area with substrate ENYYFQS” value came out at 0.0572.

On to MGESLFKGPRDYNPISSSICHLTNESDGHTTSLYGIGFGPFIITNKHLFRRNNGTLVVWSLHGVFKVKDTTTLQQHLVDGRDMIIIRMPKDFPPFPQKLKFREPQREERICLVTTNFQTKSMSSMVSDTSCTFPSGDGIFWKHWIQTKDGQCGSPLVSTRDGFIVGIHSASNFTNTNNYFTSVPKNFMELLTNQEAQQWVSGWRLNADSVLWGGHKVFMVKPEEPFQPVKEATQL [Q59W], for which the “area with substrate ENAYFQS” value turned out to be 0.0378, the “area with substrate ENCYFQS” value turned out to be 0.0589, the “area with substrate ENDYFQS” value turned out to be 0.0501 and the “area with substrate ENGYFQS” value is 0.0366. Further, the “area with substrate ENKYFQS” value was 0.053, the “area with substrate ENMYFQS” value worked out at 0.07, the “area with substrate ENNYFQS” value worked out at 0.0812 and the “area with substrate ENQYFQS” value came out at 0.0549. The “area with substrate ENRYFQS” value amounted to 0.0574, the “area with substrate ENSYFQS” value came out at 0.0501, the “area with substrate ENTYFQS” value turned out to be 0.0897 and the “area with substrate ENVYFQS” value is 0.0754. For the same variant, the “area with substrate ENWYFQS” value stood at 0.0502 and the “area with substrate ENYYFQS” value was 0.0656.

Regarding MGESLFKGPRDYNPISSSICHLTNESDGHTTSLYGIGFGPFIITNKHLFRRNNGTLVVESLHGVFKVKDTTTLQQHLVDGRDMIIIRMPKDFPPFPQKLKFREPQREERICLVTTNFQTKSMSSMVSDTSCTFPSGDGIFWKHWIQTKDGQCGSPLVSTRDGFIVGIHSASNFTNTNNYFTSVPKNFMELLTNQEAQQWVSGWRLNADSVLWGGHKVFMVKPEEPFQPVKEATQL [Q59E], the “area with substrate ENAYFQS” value worked out at 0.0628, the “area with substrate ENCYFQS” value turned out to be 0.0825, the “area with substrate ENDYFQS” value came to 0.069 and the “area with substrate ENEYFQS” value was 0.0685. Also, the “area with substrate ENGYFQS” value amounted to 0.0559, the “area with substrate ENHYFQS” value worked out at 0.0567, the “area with substrate ENIYFQS” value was determined as 0.0933 and the “area with substrate ENPYFQS” value was determined as 0.0603. For the same variant, the “area with substrate ENQYFQS” value was found to be 0.0511, the “area with substrate ENRYFQS” value came out at 0.0759, the “area with substrate ENSYFQS” value is 0.03 and the “area with substrate ENTYFQS” value was found to be 0.0667. Further, the “area with substrate ENVYFQS” value stood at 0.0746, the “area with substrate ENWYFQS” value worked out at 0.0713 and the “area with substrate ENYYFQS” value came to 0.053.

As for MGESLFKGPRDYNPISSSICHLTNESDGHTTSLYGIGFGPFIITNKHLFRRNNGTLVVSSLHGVFKVKDTTTLQQHLVDGRDMIIIRMPKDFPPFPQKLKFREPQREERICLVTTNFQTKSMSSMVSDTSCTFPSGDGIFWKHWIQTKDGQCGSPLVSTRDGFIVGIHSASNFTNTNNYFTSVPKNFMELLTNQEAQQWVSGWRLNADSVLWGGHKVFMVKPEEPFQPVKEATQL [Q59S], the “area with substrate ENAYFQS” value came to 0.0584, the “area with substrate ENCYFQS” value came out at 0.0558, the “area with substrate ENDYFQS” value was 0.0743 and the “area with substrate ENEYFQS” value was 0.0688. Also, the “area with substrate ENFYFQS” value worked out at 0.0613, the “area with substrate ENKYFQS” value worked out at 0.0801, the “area with substrate ENMYFQS” value was 0.0756 and the “area with substrate ENNYFQS” value amounted to 0.0567. Also, the “area with substrate ENQYFQS” value came to 0.067, the “area with substrate ENRYFQS” value came out at 0.0598, the “area with substrate ENSYFQS” value came to 0.0545 and the “area with substrate ENTYFQS” value was found to be 0.109. The “area with substrate ENYYFQS” value amounted to 0.0638.
